# Test results as given in PMC4336329 (PLoS ONE, 2015).
# In all, about 310,000 compounds went through this assay and about 2,200 (0.71%) showed an effect of 50% or more. Effects have a minus sign here. This is one part of the list.
# Target: human ether-à-go-go-related gene (hERG) potassium channel (human, UniProt Q12809)
# Assay: primary screen, population patch clamp on CHO cells stably expressing hERG
# human ether-à-go-go-related gene (hERG) potassium channel, sequence (Q12809 whole entry, looked up): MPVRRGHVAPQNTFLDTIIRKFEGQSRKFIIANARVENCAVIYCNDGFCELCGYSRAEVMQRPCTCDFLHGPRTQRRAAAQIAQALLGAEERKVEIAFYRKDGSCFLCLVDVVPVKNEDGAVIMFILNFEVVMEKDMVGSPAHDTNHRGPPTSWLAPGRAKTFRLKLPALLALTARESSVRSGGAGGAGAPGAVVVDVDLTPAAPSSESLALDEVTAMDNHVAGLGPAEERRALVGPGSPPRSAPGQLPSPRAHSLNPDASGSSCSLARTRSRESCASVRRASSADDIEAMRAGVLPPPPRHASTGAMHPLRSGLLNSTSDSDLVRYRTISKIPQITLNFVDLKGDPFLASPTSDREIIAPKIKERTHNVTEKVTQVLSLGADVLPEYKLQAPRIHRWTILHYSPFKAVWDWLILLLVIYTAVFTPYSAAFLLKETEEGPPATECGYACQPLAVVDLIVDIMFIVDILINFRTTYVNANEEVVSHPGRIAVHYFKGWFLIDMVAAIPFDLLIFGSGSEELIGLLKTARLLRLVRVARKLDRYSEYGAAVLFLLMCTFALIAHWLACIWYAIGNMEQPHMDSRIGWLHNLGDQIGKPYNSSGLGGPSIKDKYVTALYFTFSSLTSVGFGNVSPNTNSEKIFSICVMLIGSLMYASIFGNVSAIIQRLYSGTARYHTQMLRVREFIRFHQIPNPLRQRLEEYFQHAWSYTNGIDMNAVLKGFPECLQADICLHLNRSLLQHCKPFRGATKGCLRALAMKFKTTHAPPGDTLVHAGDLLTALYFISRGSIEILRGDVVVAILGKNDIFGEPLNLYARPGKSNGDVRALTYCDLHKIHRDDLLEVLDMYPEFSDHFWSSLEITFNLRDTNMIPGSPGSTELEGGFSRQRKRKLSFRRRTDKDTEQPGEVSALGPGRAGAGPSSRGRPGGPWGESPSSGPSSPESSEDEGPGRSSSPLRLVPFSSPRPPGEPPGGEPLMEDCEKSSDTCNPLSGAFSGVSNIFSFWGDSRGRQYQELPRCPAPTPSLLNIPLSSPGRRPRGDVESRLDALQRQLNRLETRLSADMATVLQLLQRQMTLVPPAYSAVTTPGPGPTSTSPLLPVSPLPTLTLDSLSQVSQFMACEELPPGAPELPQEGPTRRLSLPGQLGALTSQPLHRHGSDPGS
row,SMILES,"hERG current change (%, negative = inhibition) at 1uM [%]"
1,O=C(Nc1nccs1)c1cc2sccc2n1Cc1ccc(Cl)cc1,1.23
2,COC(=O)C1(S(=O)(=O)C2(C(=O)OC)CCCC2)CCCC1,0.758
3,Nn1c(SCC(=O)Nc2ccccc2F)nnc1C1CCCCC1,21.7
4,O=C(COC(=O)c1cnccn1)NC(=O)c1ccccc1,0.268
5,O=C(/C=C/c1ccccc1[N+](=O)[O-])N1CCCCC1,5.23
6,COc1cc(C(=O)O/N=C(\N)c2cccc([N+](=O)[O-])c2)cc(OC)c1OC,2.97
7,N#C/C(C(=O)NCc1ccccc1)=C1/SC(Cc2ccc(Cl)cc2)C(=O)N1c1ccccc1 (centres unmarked),9.79
8,CC(C)(C)CC(=O)Nc1cc(S(=O)(=O)N2CCOCC2)ccc1N1CCCC1,11.8
9,Cc1ccc(CNC(=O)Nc2ccc(OC(F)(F)F)cc2)n1C,11.5
10,Cc1ccccc1/C=C/C(=O)N1CCOCC1,10.8
11,COc1cc(/C=C/C(=O)NC(C)CCc2ccccc2)cc(OC)c1OC (centres unmarked),1.76
12,Cc1ccc(C(=O)NCc2ccccc2F)cc1S(=O)(=O)N1CCCC1,13.1
13,CCOC(=O)C1CCN(C(=O)COC(=O)Cc2ccc(Cl)cc2)CC1,7.66
14,CCOc1ccc(OC(=O)C(CCS(C)(=O)=O)N2C(=O)c3ccccc3C2=O)cc1 (centres unmarked),2.6
15,O=C(NCCc1cccs1)c1cccs1,7.11
16,COc1ccc(C/C(N)=N/OC(C)=O)cc1OC,10.4
17,CCc1ccccc1NC(=O)CCNC(=O)Cn1ccc2ccccc2c1=O,17.9
18,Cl.NCCCC[C@@H](C(=O)N1CCNCC1)n1cc(CCC(=O)O)nn1,27.8
19,CN(Cc1c(C(=O)N/N=C/c2ccccc2)nnn1-c1nonc1N)c1ccccc1,14.7
20,CC(C)CCNC(=O)c1cc(C(=O)c2cc(F)ccc2O)cn(CCC(C)C)c1=O,13.2
21,O=C(Nc1nnc(-c2ccccc2)o1)C1CCCN1S(=O)(=O)c1cccs1 (centres unmarked),19.5
22,CCc1ccc(N/C(N)=N/c2nc(CSc3ncccn3)cc(=O)[nH]2)cc1,14.9

row,SMILES,"hERG current change (%, negative = inhibition) at 1uM [%]"
1,Cc1nnc(NC(=O)CSc2nc3[nH]ncc3c(=O)[nH]2)s1,13.9
2,O=C1CC(NS(=O)(=O)c2cc(F)ccc2F)CN1c1ccc2c(c1)OCCO2 (centres unmarked),8.64
3,C[C@H]1CN=C(N(C)C)N1CC1CCCCC1,10.9
4,C[C@H](NC(=O)[C@@H]1Cc2ccccc2CN1C(=O)OC(C)(C)C)C(=O)NCc1ccco1,27.7
5,Cc1ccc2c(c1)N(Cc1ccccn1)C(=O)C(C)O2 (centres unmarked),5.6
6,O=C(CCc1nc2ccccc2[nH]1)Nc1ccc(F)cc1,-0.822
7,CCc1ccc(N=C2NC(=O)/C(=C/c3cc(OC)c(OC)c(OC)c3)S2)cc1,12
8,CC(=O)N1CCc2cc(S(=O)(=O)NC(CC(C)C)C(=O)N3CCc4ccccc4C3)ccc21 (centres unmarked),-5.9
9,CCOc1cc(NC(=O)c2cccs2)c(OCC)cc1NC(=O)c1ccccn1,0.549
10,COc1ccc(COC(=O)C2=C(C)NC(=O)NC2c2ccc(F)cc2)cc1 (centres unmarked),9.52
11,CC(C)Cc1ccc(C(=O)NCCOc2ccccc2)o1,6.77
12,CCCc1ccc(Oc2cn[nH]c2-c2ccc(O)cc2O)cc1,5.54
13,COc1ccccc1-c1noc2ncnc(Nc3cccc(C)c3)c12,18.1
14,CC1CCN(S(=O)(=O)c2ccc(S(=O)(=O)NCc3ccccc3)cc2)CC1,4.48
15,CCC(C(=O)NC(C)(C)C)N(Cc1ccccc1Cl)C(=O)c1snc(C(N)=O)c1N (centres unmarked),13
16,O=C(c1cccc(Cl)c1)N1CCCc2ccccc21,12.3
17,NC(=O)c1ccc(-c2noc(-c3cccc(Cl)c3)n2)cc1,13.3
18,N/C(=N\OC(=O)Oc1ccccc1)c1ccc([N+](=O)[O-])cc1,16.4
19,CC(=O)Nc1cccc(CP(=O)(c2ccccc2)c2ccccc2)c1,12.7
20,Cc1cc(C(=O)Nc2ccc3nc(C)sc3c2)c2ccccc2n1,8.39
21,CCC(=O)Oc1oc(-c2ccccc2)nc1C=Nc1ccc(C)cc1,11.8
22,O=C(NCN1C(=O)C2C3C=CC(C3)C2C1=O)Nc1cccnc1 (centres unmarked),8.65
